# In all, about 360,000 compounds went through this assay and about 660 (0.18%) were called active. Inconclusive results, whose numbers are uncertain, are shown with a selection of clear calls. Calls follow the shape of the dose curve; as a rule, active = well fitted inhibition curve with a large enough effect; inconclusive = small, poorly fitted or top-dose-only effect; inactive = no such curve, though single readings can be large or run the other way. No potency is given beside an inconclusive call; the fits are too rough.
# Target: Rap guanine nucleotide exchange factor 4 (Homo sapiens) (UniProt Q8WZA2)
# Sequence of UniProt Q8WZA2 (Q8WZA2 whole entry, looked up): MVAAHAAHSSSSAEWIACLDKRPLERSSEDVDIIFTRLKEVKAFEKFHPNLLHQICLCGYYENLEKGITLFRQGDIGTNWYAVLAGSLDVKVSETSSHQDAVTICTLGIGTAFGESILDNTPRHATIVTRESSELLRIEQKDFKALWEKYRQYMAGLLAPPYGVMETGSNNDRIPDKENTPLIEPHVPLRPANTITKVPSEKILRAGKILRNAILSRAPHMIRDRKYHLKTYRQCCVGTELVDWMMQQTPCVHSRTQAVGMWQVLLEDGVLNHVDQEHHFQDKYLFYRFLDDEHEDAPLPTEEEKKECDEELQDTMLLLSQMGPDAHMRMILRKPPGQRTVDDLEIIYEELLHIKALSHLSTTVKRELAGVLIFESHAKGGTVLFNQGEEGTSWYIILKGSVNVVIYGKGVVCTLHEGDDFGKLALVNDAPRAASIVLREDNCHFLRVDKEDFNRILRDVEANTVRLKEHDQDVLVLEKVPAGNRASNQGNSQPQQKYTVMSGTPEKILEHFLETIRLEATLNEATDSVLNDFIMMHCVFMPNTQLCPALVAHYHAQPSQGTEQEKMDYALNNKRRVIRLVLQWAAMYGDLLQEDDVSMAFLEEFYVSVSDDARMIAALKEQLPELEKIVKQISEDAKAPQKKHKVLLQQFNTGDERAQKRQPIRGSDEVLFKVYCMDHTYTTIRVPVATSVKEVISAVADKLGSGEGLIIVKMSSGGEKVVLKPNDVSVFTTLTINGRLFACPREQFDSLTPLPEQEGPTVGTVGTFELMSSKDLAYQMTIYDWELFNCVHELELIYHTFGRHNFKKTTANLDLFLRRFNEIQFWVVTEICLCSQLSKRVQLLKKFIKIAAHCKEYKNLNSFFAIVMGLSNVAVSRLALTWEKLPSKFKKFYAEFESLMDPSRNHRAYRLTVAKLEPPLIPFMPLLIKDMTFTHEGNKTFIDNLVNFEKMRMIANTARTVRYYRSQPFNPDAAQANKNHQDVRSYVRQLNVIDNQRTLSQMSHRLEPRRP
# Assay: qHTS for Antagonist of cAMP-regulated guanine nucleotide exchange factor 2 (EPAC2): primary screen; also: nearly all actives have a fitted effect of over 45% in size
# Settings: EPAC2 GEF exchange of Rap1B-BODIPY-GDP, fluorescence; activity, negative = inhibition: at 114 µM (top of the series) unless noted
# % is scaled to controls: 0 for no effect and ±100 for the full control effect; potency is read from the fitted curve at half-maximal effect; tags tell the direction and shape of the fitted curve.
Compound,Potency,"activity, negative = inhibition"
CC(=O)NC(c1ccco1)c1cc(Cl)c2ccccc2c1O (centres undefined),"inconclusive [inhibitor, full curve]",
COCCn1c(Cc2ccccc2)nnc1SCC(=O)NC1CCCCC1,"inconclusive [inhibitor, single point]",
O=C(O)/C=C/C(=O)Nc1ccccc1SC(F)(F)C(F)(F)C(F)(F)F,"inconclusive [inhibitor, partial curve, poor fit]",
Cc1cc(C)n(-c2cc(C(C)(C)C)nc3c(-c4ccccc4)cnn23)n1,"inconclusive [inhibitor, partial curve]",
COc1cc(CNc2ccc(S(N)(=O)=O)cc2)ccc1OCc1ccccc1F,,inconclusive: -33.7% [inhibitor]
Cc1ccc2nc(-c3cccc(Br)c3)c(Cc3ccccn3)n2c1,"inconclusive [inhibitor, single point]",
O=c1c2ccccc2nc(SCc2ccccc2)n1CC1CCCO1 (centres undefined),"inconclusive [inhibitor, partial curve]",
COc1ccc(C2CC(=O)c3cnc(NC(=O)c4ccccc4)nc3C2)c(OC)c1 (centres undefined),"inconclusive [inhibitor, partial curve]",
CCOC(=O)c1c(S(=O)(=O)Nc2ccc(F)cc2C)c(C)n(C)c1C,"inconclusive [inhibitor, partial curve]",
O=C(c1ccc(N2C(=O)C3C4CC(C(Br)C4Br)C3C2=O)cc1)N1CCCCC1 (centres undefined),,inactive: -4.27%
Nc1nc(SCc2ccccc2)sc1C(=O)N1CCCCC1,,inactive: 0%
Cc1c(N=Cc2cc(Br)cc(Br)c2O)cccc1C(=O)O,"inconclusive [inhibitor, partial curve]",
CCC(=O)c1ccc(OCC(O)Cn2nnc3ccccc32)cc1 (centres undefined),,inactive: -9.11%
O=C1C(Nc2cccc(O)c2)=C(N2CCCCC2)C(=O)c2ccccc21,,inactive: -10.2%
CCOc1ccc(S(=O)(=O)N2CCOCC2)c2ccccc12,"inconclusive [inhibitor, partial curve]",
COC(=O)C1=C(C)N(Cc2ccccc2)C(=S)N[C@H]1c1cccc(C(F)(F)F)c1,"inconclusive [inhibitor, full curve]",
CC1(Cc2cccc(F)c2)C(=O)Nc2ccc(-c3cccnc3)cc21 (centres undefined),"inconclusive [inhibitor, partial curve]",
Cc1c(Cc2ccccc2)c(=O)oc2c(O)c(O)ccc12,"inconclusive [inhibitor, partial curve]",
CN1C(=O)C(C)(C)c2cc(S(=O)(=O)N3CCN(c4ccc(F)cc4)CC3)ccc21,,inactive: -8.11%
CCCCCCn1c(=O)n2n(c1=O)C[C@]1(OC(=O)NC3CC3)CN(S(=O)(=O)c3ccc(C)cc3)C[C@]1(O)C2,,inactive: -12.5%
CCCCOC(=O)C1=C(N)N2C(=O)C(C)SC2=C(C(=O)OCC)C1c1ccc(O)c(OC)c1 (centres undefined),"inconclusive [inhibitor, full curve]",
Clc1cccc(Cl)c1C1Nc2cccc3cccc(c23)N1,active: 56.2 µM,
Oc1ccc(C(=Nc2ccccc2)c2ccccc2)c(O)c1,"inconclusive [inhibitor, partial curve]",

Compound,Potency,"activity, negative = inhibition"
Clc1cccc(Cl)c1CSc1cc2c(nn1)-c1ccccc1CC2,,inactive: -1.89%
COc1ccc(CN(CCC(c2ccccc2)c2ccco2)C(=O)c2ccco2)cc1 (centres undefined),"inconclusive [inhibitor, partial curve]",
COc1ccc(-n2c(C)cc(C(=O)COC(=O)c3ccc(O)cc3O)c2C)cc1,,inactive: -20.5%
CCNC(=S)Nc1ccc(Cl)c([N+](=O)[O-])c1,,inactive: -10.7%
CCOC(=O)C1=C(N)OC2=C(C(=O)CC(C)(C)C2)C1c1ccc(CC)s1 (centres undefined),"inconclusive [inhibitor, partial curve]",
Cc1ccc(CNc2nc(NCc3ccccc3)nc3ccsc23)c(C)c1,"inconclusive [inhibitor, full curve, poor fit]",
Cc1ccccc1CN1CCc2cc([N+](=O)[O-])ccc21,,inactive: 6.07%
Cc1cc(SCC(=O)c2cccs2)n2nc(C)c(-c3ccccc3)c2n1,"inconclusive [inhibitor, partial curve]",
Cc1nc(CNS(=O)(=O)c2cc(F)ccc2F)cs1,,inactive: 8.34%
COc1ccccc1CN1CCN(C(=O)c2ccncc2)CC1,,inactive: -1.82%
COCCNc1nc(Oc2cccc3ccccc23)c2sccc2n1,"inconclusive [inhibitor, partial curve]",
Cc1ccc(-c2onc(C)c2C)cc1S(=O)(=O)N1CC(C)Oc2ccccc21 (centres undefined),"inconclusive [inhibitor, full curve]",
CC1CCCN(C(=O)c2cc(-c3cccs3)nc3ccccc23)C1 (centres undefined),"inconclusive [inhibitor, partial curve]",
CN1/C(=C\C=C2/SC(=S)N(CC(=O)O)C2=O)C(C)(C)c2ccccc21,,inactive: 46.6%
NC(=O)c1sc2nnc(-c3ccccc3)c(-c3ccccc3)c2c1N,"inconclusive [inhibitor, partial curve]",
Cc1ccc(C)c(Nc2cc(C)nc(-c3ccccc3O)n2)c1,"inconclusive [inhibitor, partial curve]",
C[C@@]1([C@@H](NC(=O)c2cccs2)c2ccc(-c3ccccc3)cc2)C[C@H]1C1CCCCC1,"inconclusive [inhibitor, single point]",
CC1=Nc2ccccc2N=C(NC(=O)/C=C/C(=O)O)C1c1ccccc1 (centres undefined),"inconclusive [inhibitor, full curve]",
CCC(=Cc1ccccc1OC)c1ccncc1,"inconclusive [inhibitor, partial curve]",
CCCCn1c2c(c3ccccc31)CCc1nonc1-2,"inconclusive [inhibitor, partial curve]",
Nc1nonc1-n1nnc(C(=O)N/N=C/c2ccccc2F)c1-c1cccs1,,inactive: -5.82%
Cc1cc(C)c(Nc2cc(S(=O)(=O)O)c(N)c3c2C(=O)c2ccccc2C3=O)c(C)c1,"inconclusive [inhibitor, single point]",
CC1(C)N([O-])c2cc([N+](=O)[O-])ccc2[N+]1=O,"inconclusive [inhibitor, single point]",

Compound,Potency,"activity, negative = inhibition"
COc1ncc(-c2c(-c3ccccc3OC)sc3ccccc23)cn1,"inconclusive [inhibitor, full curve]",
COc1ccc(S(=O)(=O)Cc2ccc(C(=O)N3CCN(c4ccccc4F)CC3)o2)cc1,,inconclusive: -18.4% [inhibitor]
CCOC(=O)CNC(=O)CCc1nnc2ccc(N3CCC(C)CC3)nn12,"inconclusive [inhibitor, single point]",
CC(=O)c1cccc(NC(=O)c2ccc(-c3ccccc3[N+](=O)[O-])o2)c1,"inconclusive [inhibitor, single point]",
CCCCCCCCCc1conc1C(=O)/C=C/c1oc2c(c1C)CCC(C)C2 (centres undefined),"inconclusive [inhibitor, partial curve]",
C=CCc1ccc(O)c(-c2cc(CC=C)ccc2O)c1,"inconclusive [inhibitor, partial curve]",
CC(=O)NC(c1ccccc1)c1nc(/C=C/c2ccccc2)cs1 (centres undefined),"inconclusive [inhibitor, partial curve]",
CC[C@H](NC(=O)/C=C/[C@H]1O[C@@H](n2cc(C)c(=O)[nH]c2=O)C[C@@H]1O)c1ccccc1,"inconclusive [inhibitor, single point]",
O=S(=O)(Nc1ccc(Cl)cc1)c1ccc(N2CCOCC2)c(NC(=S)NC2CC2)c1,,inactive: -26.4%
Cc1ccc(NC(=O)C2C3CC4OC(=O)C2C4C3)cc1Cl (centres undefined),,inactive: 13.7%
CC1(C)Oc2ccc(NC(=O)C3COc4ccccc4O3)cc2O1 (centres undefined),,inactive: -9.68%
Cc1ccc(-c2cc(C(=O)N(C)Cc3cnn(C)c3C)c3cc(Br)ccc3n2)cc1,"inconclusive [inhibitor, partial curve]",
O=C(NCc1ccc(F)cc1Cl)C1CC(=O)N(C2CCCCCCC2)C1 (centres undefined),,inactive: 0.956%
CCCC(=O)N1CCN(c2ccc([N+](=O)[O-])cc2Cl)CC1,,inactive: -8.76%
CCOC(=O)[C@H]1Nc2ccc(Cl)cc2[C@@H]2[C@H]1C1CC(c3ccccc31)N2C(=O)OCc1ccccc1 (some centres undefined),"inconclusive [inhibitor, single point]",
CCCNC(=O)c1onc(CSc2nc3ccccc3[nH]2)c1C(=O)NCCC,,inactive: -19.4%
COc1ccc(C(=O)c2ccc(Br)cc2)c2ccccc12,"inconclusive [inhibitor, full curve]",
O=c1cc(-c2ccccc2)cc(-c2ccccc2)n1CCCO,"inconclusive [inhibitor, single point]",
Cc1cccc([C@H]2[C@@H]3C=CC[C@@H](C)[C@@H]3C(=O)N2Cc2ccccc2)c1,"inconclusive [inhibitor, full curve]",
O=C(c1ccc(CNc2c(N3CCCC3)c(=O)c2=O)cc1)N1CCc2ccccc2C1,"inconclusive [inhibitor, single point]",
O=c1cc(N2CCCCC2)c(-c2ccccc2)nn1Cc1ccc(F)cc1,,inactive: -15.3%
Cc1c(C)c2ccc(OC(C)C(=O)N[C@@H](Cc3c[nH]c4ccccc34)C(=O)O)c(C)c2oc1=O (some centres undefined),"inconclusive [inhibitor, full curve]",
CCc1nnc(NS(=O)(=O)c2ccc(NC(=S)NC(=O)/C=C/c3ccc(C(C)C)cc3)cc2)s1,"inconclusive [inhibitor, single point]",
